These results are taken from paper PMC4336329 (PLoS ONE, 2015).

Hit rate of the full screen: of about 310,000 compounds, about 2,200 (0.71%) showed an effect of 50% or more. The effect is printed as a negative number. The list shows a part of the results.

For this experiment, the target named is human ether-à-go-go-related gene (hERG) potassium channel (human, UniProt Q12809). The experiment is described as follows: primary screen, population patch clamp on CHO cells stably expressing hERG.
Sequence of human ether-à-go-go-related gene (hERG) potassium channel (Q12809 whole entry, looked up): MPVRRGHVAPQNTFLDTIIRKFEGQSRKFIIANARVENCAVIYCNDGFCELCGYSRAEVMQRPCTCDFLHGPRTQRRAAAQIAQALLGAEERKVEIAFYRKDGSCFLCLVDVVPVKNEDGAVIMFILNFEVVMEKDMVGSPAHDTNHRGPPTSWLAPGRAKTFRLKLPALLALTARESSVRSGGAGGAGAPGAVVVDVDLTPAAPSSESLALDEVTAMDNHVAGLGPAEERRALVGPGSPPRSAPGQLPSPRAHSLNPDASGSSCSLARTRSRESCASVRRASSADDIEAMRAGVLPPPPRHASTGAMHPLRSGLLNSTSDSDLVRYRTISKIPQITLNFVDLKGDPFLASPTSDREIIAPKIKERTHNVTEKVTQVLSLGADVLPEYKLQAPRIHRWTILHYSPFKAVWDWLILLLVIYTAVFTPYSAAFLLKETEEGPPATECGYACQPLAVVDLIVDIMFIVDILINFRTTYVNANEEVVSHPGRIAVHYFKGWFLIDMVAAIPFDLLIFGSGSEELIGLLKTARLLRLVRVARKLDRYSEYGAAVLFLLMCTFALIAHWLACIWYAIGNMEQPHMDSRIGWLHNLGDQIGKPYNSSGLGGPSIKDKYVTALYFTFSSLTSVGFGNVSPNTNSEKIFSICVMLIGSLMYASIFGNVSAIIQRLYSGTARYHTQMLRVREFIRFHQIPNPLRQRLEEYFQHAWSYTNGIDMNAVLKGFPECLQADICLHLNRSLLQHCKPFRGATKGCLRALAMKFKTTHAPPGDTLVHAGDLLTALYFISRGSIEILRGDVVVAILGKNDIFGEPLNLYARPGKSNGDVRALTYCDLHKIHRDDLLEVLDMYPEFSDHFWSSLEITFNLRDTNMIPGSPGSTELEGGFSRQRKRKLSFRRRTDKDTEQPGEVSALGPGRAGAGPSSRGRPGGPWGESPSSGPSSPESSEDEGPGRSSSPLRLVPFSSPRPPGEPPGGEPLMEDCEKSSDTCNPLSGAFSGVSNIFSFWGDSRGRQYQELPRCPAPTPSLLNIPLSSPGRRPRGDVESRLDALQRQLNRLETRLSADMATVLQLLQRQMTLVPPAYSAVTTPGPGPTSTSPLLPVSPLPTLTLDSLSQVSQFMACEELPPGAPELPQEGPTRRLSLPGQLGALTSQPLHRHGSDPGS
Turning to `NC(=O)C1CCN(C(=O)c2cccc(CN3C(=O)c4ccccc4C3=O)c2)CC1`, the “hERG current change (%, negative = inhibition) at 1uM” value is recorded as 5.73%.

With `C[C@H](NC(=O)c1cc2cc(Cl)ccc2n1C)C(=O)N1CCC(C(=O)O)CC1`, the “hERG current change (%, negative = inhibition) at 1uM” value was found to be 9.78%.

For `COc1cc(OC)c(OC)cc1CN1CCN(Cc2ccco2)CC1.O=C(O)C(=O)O`, the “hERG current change (%, negative = inhibition) at 1uM” value is on record as 13.6%.

As to `COc1ccc(-n2nc3c(c2NC(=O)COc2cccc(OC)c2)CS(=O)(=O)C3)cc1`, the “hERG current change (%, negative = inhibition) at 1uM” value is -6.43%.

Consider `O=C(CNc1ccccc1)N/N=C/c1ccc2c(c1)OCO2`, for which the “hERG current change (%, negative = inhibition) at 1uM” value is on record as 11.7%.

As to `C=CCN(c1ccccc1C(=O)O)S(=O)(=O)/C=C/c1ccccc1`, the “hERG current change (%, negative = inhibition) at 1uM” value was 8.66%.

Consider `Cc1cc(C)c(NC(=O)CSc2nnc(CN3CCOCC3)n2C)c(C)c1`, for which the “hERG current change (%, negative = inhibition) at 1uM” value is recorded as 5.37%.

As to `CCOc1ccc(NC(=O)COc2ccc3c(c2)CCC3)cc1OC`, the “hERG current change (%, negative = inhibition) at 1uM” value is on record as 9.67%.

On to `CCOC(=O)CSc1ncc(OC)c(=O)[nH]1`, for which the “hERG current change (%, negative = inhibition) at 1uM” value came out at 19.3%.

As to `Nc1c(Cl)nc(-c2ccccc2)nc1Cl`, the “hERG current change (%, negative = inhibition) at 1uM” value is 13.4%.

Take `Cn1c(NN)nc2sc3c(c2c1=O)CC(C)(C)OC3`: the “hERG current change (%, negative = inhibition) at 1uM” value amounted to 12.3%.

In the case of `CCn1c(CC(=O)Nc2ccc(C)c(Cl)c2)nnc1SCCOc1ccc(OC)cc1`, the “hERG current change (%, negative = inhibition) at 1uM” value is 3.56%.

Regarding `COC(=O)c1cn(-c2ccccc2)nc1-c1cccnc1`, the “hERG current change (%, negative = inhibition) at 1uM” value was determined as 0.491%.

With `CS(=O)(=O)c1cccc(NC(=O)c2ccc(Cl)c(Cl)c2)c1`, the “hERG current change (%, negative = inhibition) at 1uM” value is reported as 1.67%.

Turning to `CCCCN(CCCC)C(=O)C[n+]1cccc(/C=N/O)c1.[Cl-]`, the “hERG current change (%, negative = inhibition) at 1uM” value is 3.73%.

For `CCc1ccc(N2CC(C(=O)Nc3cccc(S(=O)(=O)N4CCCC4)c3)CC2=O)cc1` (centres unmarked), the “hERG current change (%, negative = inhibition) at 1uM” value worked out at 2.63%.

On to `CC1CCN(C(=O)CNC(=O)CNS(=O)(=O)c2ccccc2)CC1`, for which the “hERG current change (%, negative = inhibition) at 1uM” value is 8.22%.

As to `CC(=O)N1CCCc2cc(S(=O)(=O)NC(C(=O)NC(C)c3ccccc3)C(C)C)ccc21` (centres unmarked), the “hERG current change (%, negative = inhibition) at 1uM” value is reported as 1.38%.

`N#Cc1c(-c2ccc(Cl)cc2)ccn2nc(C3CCCCC3)nc12`: the “hERG current change (%, negative = inhibition) at 1uM” value is 14.9%.

`CCCCCCCc1ccc(-c2ccc(O)cc2)nc1`: the “hERG current change (%, negative = inhibition) at 1uM” value came out at 9.71%.

Regarding `N#C/C(=C/c1ccc(N2CCCCC2)o1)C(=O)Nc1ccc(Cl)cc1`, the “hERG current change (%, negative = inhibition) at 1uM” value is listed as 12.8%.

As to `Cc1ccc(S(=O)(=O)N2CCN(C(=O)CC(C)C)CC2)cc1`, the “hERG current change (%, negative = inhibition) at 1uM” value was determined as 5.17%.

In the case of `CCOC(=O)c1ccc(N=Cc2c(O)n(-c3ccccc3F)c(=S)[nH]c2=O)cc1`, the “hERG current change (%, negative = inhibition) at 1uM” value is on record as -0.101%.

Consider `CCN1CCN(c2ncnc3sc(C)c(-c4ccccc4)c23)CC1`, for which the “hERG current change (%, negative = inhibition) at 1uM” value is reported as -25.9%.

`Cc1ccc(CCN2C(Nc3ccccc3)=NC[C@@H]2C)cc1`: the “hERG current change (%, negative = inhibition) at 1uM” value is given as -16.8%.

`CCC(=O)Nc1nnc(/C=C/c2ccccc2)s1`: the “hERG current change (%, negative = inhibition) at 1uM” value was found to be 5.06%.

Consider `CSCCC(NC(=O)c1ccc([N+](=O)[O-])cc1Cl)C(=O)OCC(=O)N(C)C` (centres unmarked), for which the “hERG current change (%, negative = inhibition) at 1uM” value turned out to be 8.47%.

As for `COc1ccc(C(=O)N2CCCC(CCC(=O)NCc3ccccc3F)C2)c(OC)n1` (centres unmarked), the “hERG current change (%, negative = inhibition) at 1uM” value came out at 11.5%.

With `COc1cccc(NC(=O)Nc2ccccc2Br)c1`, the “hERG current change (%, negative = inhibition) at 1uM” value worked out at 13.4%.

Regarding `COc1ccccc1[C@@H]1C(c2ccc(F)cc2)=NN(c2ccccc2)[C@H]1C(=O)N1CCOC1=O`, the “hERG current change (%, negative = inhibition) at 1uM” value is given as 11.9%.

On to `CCOC(=O)c1c(NS(=O)(=O)c2ccccc2)n(CCCOC)c2nc3ccccc3nc12`, for which the “hERG current change (%, negative = inhibition) at 1uM” value is recorded as 6.13%.

`CC(C)CNC(=O)CSc1ccc(Cl)cc1`: the “hERG current change (%, negative = inhibition) at 1uM” value is reported as 0.174%.

`Cc1ccc(S(=O)(=O)N2CCN(c3cnn(C)c(=O)c3Cl)CC2)cc1`: the “hERG current change (%, negative = inhibition) at 1uM” value came out at 3.55%.

Regarding `COc1cccc(/C=C2\SC(N3CCCC(C)C3)=NC2=O)c1OC` (centres unmarked), the “hERG current change (%, negative = inhibition) at 1uM” value stood at 9.17%.

`CC(=O)Nc1cccc(OCC(O)Cn2cnc3ccccc32)c1` (centres unmarked): the “hERG current change (%, negative = inhibition) at 1uM” value is on record as 19.6%.

Turning to `O=C(NCc1ccco1)c1cnc2ccccn2c1=O`, the “hERG current change (%, negative = inhibition) at 1uM” value amounted to 5.25%.

For the compound `Cc1cccc(OCC(=O)N2CCN(c3nnc(-c4ccccc4)c4ccccc34)CC2)c1`, the “hERG current change (%, negative = inhibition) at 1uM” value was -3.75%.

Turning to `COc1ccc(-n2c(=O)n(Cc3ccccc3)c(=O)c3[nH]cnc32)cc1`, the “hERG current change (%, negative = inhibition) at 1uM” value is 0.529%.

Turning to `CCC(C(=O)NC1CCCC1)N(C(=O)Cn1nnc(-c2ccc(C)o2)n1)c1cnc2ccccc2c1` (centres unmarked), the “hERG current change (%, negative = inhibition) at 1uM” value amounted to 10.4%.

Regarding `CC(C)Cc1oc(C(=O)O)cc1CN1CCOCC1.Cl`, the “hERG current change (%, negative = inhibition) at 1uM” value came to 9.34%.

For the compound `CCSc1cc(C2C(C#N)=C(N)OC(C)=C2C(=O)OC)c(C)o1` (centres unmarked), the “hERG current change (%, negative = inhibition) at 1uM” value is 10.4%.

Take `Cc1ccc(C(=O)OCC(=O)N2CCCC2)cc1`: the “hERG current change (%, negative = inhibition) at 1uM” value was found to be 5.79%.

`CCOc1ccc(C(F)(F)F)cc1NC(C)=O`: the “hERG current change (%, negative = inhibition) at 1uM” value is reported as 10%.

For the compound `CCOC(=O)N1CCN(C(=O)CCn2nc(-c3ccccc3)ccc2=O)CC1`, the “hERG current change (%, negative = inhibition) at 1uM” value is -7.98%.

`CCOC(=O)CN1C(=O)C(O)(c2c(C)[nH]c3ccccc23)c2ccccc21` (centres unmarked): the “hERG current change (%, negative = inhibition) at 1uM” value came to 9.3%.

As to `NC(=O)c1nsc(C(=O)N(c2ccc3c(c2)OCO3)C(C(=O)NCC2CCCO2)c2ccc(F)cc2)c1N` (centres unmarked), the “hERG current change (%, negative = inhibition) at 1uM” value is given as 6.43%.

Take `CN([C@@H](Cc1ccc(OS(=O)(=O)c2cccc3cnccc23)cc1)C(=O)N1CCN(c2ccccc2)CC1)S(=O)(=O)c1cccc2cnccc12`: the “hERG current change (%, negative = inhibition) at 1uM” value is recorded as -0.0105%.

For `O=C(NC1CC1)c1ccc(CS(=O)c2ccccc2)o1` (centres unmarked), the “hERG current change (%, negative = inhibition) at 1uM” value is on record as 1.26%.

`Cn1nnnc1SCC(=O)NCc1cc([N+](=O)[O-])ccc1O`: the “hERG current change (%, negative = inhibition) at 1uM” value worked out at 15%.

Consider `CCOC(=O)C1(CC2CC2)CCN(Cc2ccc(C(=O)OC)cc2)CC1`, for which the “hERG current change (%, negative = inhibition) at 1uM” value is -5.47%.

Regarding `CCOc1ccc(S(=O)(=O)N2Cc3ccccc3CC2C(=O)NCCCn2ccnc2)cc1` (centres unmarked), the “hERG current change (%, negative = inhibition) at 1uM” value is -3.89%.

On to `COc1cccc(CC(=O)N2CCC(n3nccc3NC(=O)C3CCOC3)CC2)c1` (centres unmarked), for which the “hERG current change (%, negative = inhibition) at 1uM” value is on record as 11.9%.

As to `CN(CC(=O)Nc1ccccc1Cl)C(=O)COC(=O)CNC(=O)c1ccc(Br)o1`, the “hERG current change (%, negative = inhibition) at 1uM” value is -14.9%.

Take `CCOc1ccc(-c2nnc(NC(=O)Cc3ccc(OC)cc3)o2)cc1`: the “hERG current change (%, negative = inhibition) at 1uM” value worked out at 13.7%.

`Fc1cccc(Cl)c1/C=N/Nc1ccccn1`: the “hERG current change (%, negative = inhibition) at 1uM” value is on record as 8.58%.

As for `COc1ccc(/C=C2\CCCC3C2=NN(C(=O)c2scnc2C)C3c2ccc(OC)cc2)cc1` (centres unmarked), the “hERG current change (%, negative = inhibition) at 1uM” value is recorded as 7%.
